{"source": "PubChem BioAssay AID485344", "about": "(National Center for Advancing Translational Sciences (NCATS), 2010)", "note": "Several values for one entry are separate records, joined by “and”; a condition that tells them apart may be missing. Equal values may be shown once. The campaign covered roughly 340,000 compounds. About 6,900 (2%) were called active. Cut-off read from the data, not from the text of the source: active = inhibition above about 30%; inactive = below that, where a call was filed. This is a selection; strong and weak results do not stand in their true shares. The source gives no active or inactive call for entries shown without one.", "data": [{"target": "D(2) dopamine receptor (Homo sapiens) (UniProt P14416)", "sequence (P14416 whole entry, looked up)": "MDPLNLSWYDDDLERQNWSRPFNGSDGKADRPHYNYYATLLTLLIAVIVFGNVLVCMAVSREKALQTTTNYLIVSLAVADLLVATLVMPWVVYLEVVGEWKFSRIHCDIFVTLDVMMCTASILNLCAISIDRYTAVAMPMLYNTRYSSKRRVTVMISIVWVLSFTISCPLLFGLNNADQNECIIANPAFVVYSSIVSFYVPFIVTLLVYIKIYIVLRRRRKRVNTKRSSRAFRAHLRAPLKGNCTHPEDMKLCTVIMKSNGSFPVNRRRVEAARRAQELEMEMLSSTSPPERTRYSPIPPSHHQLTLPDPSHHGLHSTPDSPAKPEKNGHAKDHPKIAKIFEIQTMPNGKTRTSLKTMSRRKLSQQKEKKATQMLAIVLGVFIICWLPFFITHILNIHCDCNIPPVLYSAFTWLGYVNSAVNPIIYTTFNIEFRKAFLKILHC", "test": "HTS Assay for Allosteric Antagonists of the Human D2 Dopamine Receptor: Primary Screen for Antagonists; note: 0% is about no effect", "conditions": "HEK293 TREx D2 cells, calcium flux, dopamine EC80; at 10 µM; stronger effect = higher value", "how_it_was_run": "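Cells plated overnight at 30 C with tetracycline; no-wash calcium dye, 30–90 min RT; 10 s baseline; compound pinned; 180 s read; EC80 dopamine added; another 180 s read.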", "values": [{"smiles": "Cc1cc(=O)n2nc(N3CCC(C(=O)Nc4ccc(Br)c(C)c4)CC3)sc2n1", "inhibition": "9.17%"}, {"smiles": "COCCNC(=O)c1ccc(Cn2c(SCC(N)=O)nc3ccccc3c2=O)cc1", "inhibition": "1.97%"}, {"smiles": "Cn1c(SCc2ccc(F)cc2)nc2ccc(C(=O)NCc3cccc(Cl)c3)cc21", "inhibition": "11.7%"}, {"smiles": "CCOc1ccccc1C(=O)NCc1ccc2c(c1)CCN2C(=O)c1ccc(F)cc1", "inhibition": "-4%"}, {"smiles": "Cc1ccc(N(Cc2cccs2)C(=O)c2ccc(OC(C)C)cc2)cc1", "inhibition": "14.4%"}, {"smiles": "COc1ccc2c(CNC3CCC(C)CC3)c(C(=O)O)n(Cc3ccc(F)cc3)c2c1", "note": "(configuration not stated)", "inhibition": "-10.5%"}, {"smiles": "COc1cccc(OCCSc2nc3ccccc3n2CC(=O)N2CCOCC2)c1", "inhibition": "15.4%"}, {"smiles": "COc1ccccc1NC(=O)c1cc2c(-c3ccccc3)nn(-c3ccccc3)c2s1", "inhibition": "4.94%"}, {"smiles": "CCOc1ccccc1NC(=O)Cn1c(=O)nc(-c2ccccc2F)c2cc(Cl)ccc21", "inhibition": "3.8%"}, {"smiles": "CCc1ccccc1NC(=O)Cn1c(=O)n(C(C)C)c(=O)c2oc3ccccc3c21", "inhibition": "-10.4%"}, {"smiles": "COc1ccc(OCc2nc3ccccc3n2Cc2ccc(C(C)(C)C)cc2)cc1", "inhibition": "-28%"}, {"smiles": "CCN(CC)C(=O)Cn1c(SCC(=O)Nc2ccc(F)cc2)nc2ccccc21", "inhibition": "-27.2%"}, {"smiles": "O=C(NCc1cccc(Br)c1)C1CCCCN1S(=O)(=O)c1ccc(F)cc1", "note": "(configuration not stated)", "inhibition": "10.6%"}, {"smiles": "Cc1ccc(-c2nnc(SCc3ccccc3)o2)cc1", "inhibition": "-18.1%"}, {"smiles": "COc1cccc(NC(=O)C(C)n2c(=O)cc(C(F)(F)F)c3c(C)nn(C)c32)c1", "note": "(configuration not stated)", "inhibition": "-5.62%"}, {"smiles": "CCCNC(=O)CN1C(=O)COc2ccc(S(=O)(=O)N3CCCCCC3)cc21", "inhibition": "-0.659%"}, {"smiles": "COc1cccc(OCC(O)CN2CCN(c3ccccc3)CC2)c1", "note": "(configuration not stated)", "inhibition": "active: 85.9% and active: 82.8%"}, {"smiles": "CCc1ccc(CNC(=O)CN2C(=O)C3CCCCN3c3ccc(C(=O)N4CCCC4)cc32)cc1", "note": "(configuration not stated)", "inhibition": "-13.4%"}, {"smiles": "CC1CCN(S(=O)(=O)c2ccc3c(c2)N(C)C(=O)CC(=O)N3C)CC1", "inhibition": "5.5%"}, {"smiles": "COc1ccc(Cl)cc1NC(=O)CN(C)C(=O)c1cc2c(F)cccc2s1", "inhibition": "active: 30.9%"}, {"smiles": "CC(C)Oc1ccc(CNC(=O)C(C)n2ccc3cc(S(=O)(=O)N4CCCCCC4)ccc32)cc1", "note": "(configuration not stated)", "inhibition": "0.651%"}, {"smiles": "Cc1ccc(-n2c(=O)c3c(cnn3C)n(CC(=O)Nc3cccc(Cl)c3)c2=O)cc1", "inhibition": "6.82%"}, {"smiles": "CCC(C(=O)NCCc1ccc(OC)c(OC)c1OC)n1nc(C)c2sc3ccccc3c2c1=O", "note": "(configuration not stated)", "inhibition": "20.8%"}, {"smiles": "Cc1ccc(CSc2nc3ccccc3c3nc(CCn4c(C)nc5ccccc54)nn23)cc1", "inhibition": "15.2%"}, {"smiles": "CCOc1ccc(NC(=O)c2ccc3c(=O)n4c(nc3c2)CCCCC4)cc1", "inhibition": "9.73%"}, {"smiles": "Cc1ccc(C)c(N2CCN(CCCNC(=O)c3cnn(-c4cccc(Cl)c4)c3C3CCN(C(=O)OC(C)(C)C)CC3)CC2)c1", "inhibition": "17.7%"}, {"smiles": "Cc1cc(C)cc(NC(=O)C(C)N2Cc3ccccc3C2=O)c1", "note": "(configuration not stated)", "inhibition": "-7.7%"}, {"smiles": "CCOC(=O)c1[nH]c2ccccc2c1NC(=O)c1ccc(C)c(C)c1", "inhibition": "16.1%"}, {"smiles": "Cc1noc(Cn2c(=O)c3ccccc3n(CC(=O)Nc3cc(Cl)ccc3C)c2=O)n1", "inhibition": "7.51%"}, {"smiles": "O=C(CSc1n[nH]c(-c2ccccc2)n1)N1CCN(c2ccc(F)cc2)CC1", "inhibition": "-3.87%"}, {"smiles": "Cc1ccc(-c2nnc(Nc3ccc(OCC(N)=O)cc3)c3ccccc23)cc1S(=O)(=O)NCC1CCCO1", "note": "(configuration not stated)", "inhibition": "11.6%"}, {"smiles": "CCOC(=O)C1CCN(C(=O)Cc2c(F)cccc2Cl)CC1", "inhibition": "active: 30.8%"}, {"smiles": "O=C(CCn1cnc2onc(-c3ccc(F)cc3)c2c1=O)Nc1cccc(C(F)(F)F)c1", "inhibition": "-1.21%"}, {"smiles": "Cc1ccc(C(=O)NC2CCCCC2)cc1", "inhibition": "active: 61.5%"}, {"smiles": "CC(C)N1CCc2c(sc(NC(=O)CCS(=O)(=O)c3ccccc3)c2C#N)C1", "inhibition": "active: 33.7%"}, {"smiles": "Cc1ccn2c(Nc3ccccc3)c(-c3c[nH]c4ccccc34)nc2c1", "inhibition": "-7.03%"}, {"smiles": "Cc1cc(C)cc(NC(=O)C(=O)NCCc2sc(-c3cccc(F)c3)nc2C)c1", "inhibition": "-18.5%"}, {"smiles": "CC(=O)Nc1ccc(NC(=O)c2ccc3c(c2)CCN3S(=O)(=O)c2ccc(C)cc2)cc1", "inhibition": "11.8%"}, {"smiles": "COc1ccc(C)cc1NC(=O)N(C(C)C)C1CCN(C(C)=O)CC1", "inhibition": "15.2%"}, {"smiles": "Cc1ccc(-c2nnc3ccccc3c2C(=O)Nc2ccc(F)cc2)cc1", "inhibition": "11.8%"}, {"smiles": "COc1ccc(C(C)=O)cc1CSc1nc(Nc2ccc(F)c(F)c2)c2ccccc2n1", "inhibition": "-2.65%"}, {"smiles": "O=C(O)c1cc(-c2ccccc2)nn1Cc1ccccc1", "inhibition": "12.1%"}, {"smiles": "COc1ccccc1Nc1nn2c(=O)c3ccc(C(=O)NCCc4ccccc4)cc3nc2s1", "inhibition": "0.459%"}, {"smiles": "Cc1ccc(N2CCN(c3nc4ccc(C(=O)c5ccccc5)cc4n4cnnc34)CC2)c(C)c1", "inhibition": "2.31%"}, {"smiles": "Cc1oc2c(c1C(=O)NCc1ccccc1F)C1=NCCN1C=N2", "inhibition": "-4.59%"}, {"smiles": "CC(C)Oc1ccc(CNC(=O)c2cnc3sc(N4CCCC4)nn3c2=O)cc1", "inhibition": "2.46%"}, {"smiles": "CCOC(=O)NNC(=O)C1CCC(C)CC1", "note": "(configuration not stated)", "inhibition": "6.98%"}, {"smiles": "CCOc1ccc(NC(=O)CC2C(=O)N(c3ccc(OC)cc3)C(=O)N2CCC2=CCCCC2)cc1", "note": "(configuration not stated)", "inhibition": "-15.5%"}, {"smiles": "CC(=O)Nc1cccc(-c2nnc(SCC(=O)c3cc([N+](=O)[O-])ccc3Cl)o2)c1", "inhibition": "1.53%"}, {"smiles": "CCOC(=O)c1cnc2ccc(C(=O)OC)cc2c1Nc1ccc(OCc2ccccc2Cl)cc1", "inhibition": "-10.3%"}, {"smiles": "COc1cccc(N2CCN(C(=O)c3ccc4nc(N5CCC(C)CC5)sc4c3)CC2)c1", "inhibition": "-14.2%"}, {"smiles": "CCN(CC)C(=O)Cn1ncc2c([nH]c3ccccc32)c1=O", "inhibition": "5.92%"}, {"smiles": "Cc1ccccc1NC(=O)CSc1ccc(-c2ccccn2)nn1", "inhibition": "3.74%"}, {"smiles": "CCN1CCN(CCCNC(=O)Cn2nc(C)n3c(cc4c(OC)cccc43)c2=O)CC1", "inhibition": "12.1%"}, {"smiles": "COc1ccccc1-c1nn(CCC(=O)Nc2ccc(C)cc2)c2nc(C)cc(C)c12", "inhibition": "12.6%"}, {"smiles": "CC1=C(C(N)=O)C(c2ccc(C)cc2)n2nc(SCc3ccccc3)nc2N1", "note": "(configuration not stated)", "inhibition": "-8.16%"}, {"smiles": "COc1ccc(S(=O)(=O)Nc2cccc(-c3ccc(N4CCCC4)nn3)c2)cc1F", "inhibition": "-10.1%"}, {"smiles": "COc1cc(/C=C(/C#N)c2nc3ccccc3[nH]2)ccc1OCC(=O)Nc1ccccc1C(C)C", "inhibition": "active: 32%"}, {"smiles": "Cc1nc(-c2ccc(S(=O)(=O)NCc3ccccc3Cl)cc2)co1", "inhibition": "2.31%"}, {"smiles": "CCCCN(CCCC)C(=O)c1c[nH]c2ccc(S(=O)(=O)Nc3cccc(Cl)c3C)cc2c1=O", "inhibition": "4.48%"}, {"smiles": "Cc1ccc(C(=O)Nc2cnc3ccccn3c2=O)cc1", "inhibition": "-3.9%"}, {"smiles": "CCCn1c2ccccc2c2cnn(CC(=O)N3CCCC(C(=O)OCC)C3)c(=O)c21", "note": "(configuration not stated)", "inhibition": "-13.1%"}]}]}
